# Reference: PubChem BioAssay (NCATS)
# This list was built around the results that the source calls inconclusive (neither active nor inactive); the mix of calls is not that of the screen. No potency is given beside an inconclusive call; the fits are too rough. Active and inactive are the calls of the source. The call rests on the fitted dose curve; in most records, active means well fitted inhibition curve with a large enough effect in the repeat runs; inconclusive means weak or mixed curves; inactive means no such curve, though single readings can be large or run the other way.
# Molecular target: Cytochrome P450 2C9 (Homo sapiens) (UniProt P11712)
# Experiment: Cytochrome P450 family 2 subfamily C member 9 (CYP2C9) small molecule antagonists: luciferase biochemical (cell-free) qHTS assay (AID 1645842); further: nearly all actives have a fitted effect of over 55% in size
# Conditions: P450-Glo CYP2C9 enzyme assay, luciferin luminescence; series mostly up to 57.4 µM; activity change, negative = inhibition: at the top concentration
# In short: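 Luminescence, after 20 min with luciferin detection reagent, reflected CYP2C9 turnover during a 1 h NADPH-driven reaction at 37C. Enzyme-substrate mix contained 0.4% bovine serum albumin and was preincubated with compound 10 min at room temperature.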
# On the % scale 0 is the no-effect control and ±100 the full control effect; potency means the concentration at half of the fitted maximal effect; tags describe the fitted curve by direction and shape.
# Chain of UniProt P11712 (P11712 whole entry, looked up): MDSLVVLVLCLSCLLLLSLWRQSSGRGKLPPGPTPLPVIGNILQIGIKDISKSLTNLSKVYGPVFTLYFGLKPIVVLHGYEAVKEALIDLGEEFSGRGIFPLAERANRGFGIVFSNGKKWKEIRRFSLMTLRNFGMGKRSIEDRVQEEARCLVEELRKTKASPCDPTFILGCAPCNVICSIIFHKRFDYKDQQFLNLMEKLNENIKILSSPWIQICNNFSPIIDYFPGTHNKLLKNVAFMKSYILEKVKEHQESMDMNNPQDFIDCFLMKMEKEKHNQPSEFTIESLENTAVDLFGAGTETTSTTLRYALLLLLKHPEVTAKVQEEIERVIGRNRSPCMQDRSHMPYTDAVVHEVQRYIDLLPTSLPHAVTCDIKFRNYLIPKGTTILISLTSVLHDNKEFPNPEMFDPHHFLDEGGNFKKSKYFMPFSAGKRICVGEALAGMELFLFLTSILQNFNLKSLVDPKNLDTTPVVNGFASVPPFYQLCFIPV
SMILES,"activity change, negative = inhibition",Potency
CCOC(=O)c1ccc(Nc2nc3nonc3nc2Nc2cccc(C)c2C)cc1,inactive: 25.5%,
CCn1c(N)c(C(=O)NC)c(=O)c2ccc(C#C[C@@](C)(O)COC)nc21,,"inconclusive [inhibitor, single point]"
CC12CCC3(C)C(=CC(=O)[C@@H]4C5(C)CC[C@H](O[C@H]6O[C@H](C(=O)O)C(O)C(O)[C@H]6O[C@@H]6O[C@H](C(=O)O)C(O)C(O)C6O)C(C)(C)[C@@H]5CCC43C)[C@@H]1C[C@@](C)(C(=O)O)CC2 (stereo not given in full),,"inconclusive [inhibitor, single point]"
CCC(=O)N1CCc2cc(S(=O)(=O)NC(Cc3ccccc3)C(=O)NCc3cccc(OC)c3)ccc21 (stereo not given),,active: 12 µM
Cc1ccc2nc(-c3ccccn3)c(Nc3ccccc3C)n2c1,,active: 1.9 µM
CCCOCc1cc(CN2CCN(c3ccccc3OC)CC2)c(O)c2ncccc12,,active: 7.56 µM
COc1ccc(NC(=O)Cn2cc(C(=O)c3cccs3)c3ccccc32)cc1,,"inconclusive [inhibitor, single point]"
Cc1c(O)cc2c(c1C)O[C@](C)(CCC[C@H](C)CCC[C@H](C)CCCC(C)C)CC2,,"inconclusive [inhibitor, partial curve]"
CCCCC(O)c1ccccc1 (stereo not given),,"inconclusive [inhibitor, partial curve]"
CCCCC[C@H](O)CC[C@@H]1[C@H]2Cc3cccc(OCC(=O)O)c3C[C@H]2C[C@H]1O,,"inconclusive [inhibitor, partial curve]"
COc1ccc(Cn2c(CCC(=O)Nc3cccc(OC)c3)nc3cccnc32)cc1,,active: 4.77 µM
CC1CCCCC1N(Cc1ccccc1)[S+](=O)([O-])c1ccc([S+](=O)([O-])N(C)C)cc1 (stereo not given),,"inconclusive [inhibitor, single point]"
Cc1nc2c3ccccc3nc(NNC(=O)CCC(=O)N3CCN(c4ccc(F)cc4)CC3)n2n1,,active: 3.79 µM
CC(=O)C1(O)Cc2c(O)c3c(c(O)c2C(OC2CC(N)C(O)C(C)O2)C1)C(=O)c1ccccc1C3=O (stereo not given),,"inconclusive [inhibitor, single point]"
COc1ccc(CC(=O)NCC(c2cccs2)S(=O)(=O)c2ccc(Cl)cc2)cc1 (stereo not given),,active: 2.39 µM
CC(C)CCn1c(CN2CCN(C(=O)C(C)C)CC2)nc2c1c(=O)n(C)c(=O)n2C,,"inconclusive [inhibitor, single point]"
CCC(Sc1nc2ccccc2c2nc(CCn3cncc3C)nn12)C(=O)Nc1cccc(OC)c1 (stereo not given),,active: 1.9 µM
Cc1cccc(NC(=O)Cn2cc(C(=O)c3ccco3)c3ccccc32)c1C,,active: 3.01 µM
OCCOCCOCCOCCOCCN1CCN(C(c2ccc(Cl)cc2)c2ccc(Cl)cc2)CC1,,"inconclusive [inhibitor, partial curve]"
CCOc1ccccc1CNC(=O)C1CCN(S(=O)(=O)c2c(C)noc2/C=C/c2ccccc2F)CC1,,active: 0.151 µM

SMILES,"activity change, negative = inhibition",Potency
CC(O)CNC(=O)C(=O)Nc1c2c(nn1-c1ccc(Cl)cc1)CSC2 (stereo not given),,"inconclusive [inhibitor, partial curve]"
Cc1cccn2c(=O)c(/C=C(\C#N)c3nc4ccccc4s3)c(Oc3ccc(F)cc3)nc12,,"inconclusive [inhibitor, partial curve]"
CCc1ccc(C(=O)c2cn(CC(=O)Nc3ccc(OC)c(OC)c3)c3ccc(C)cc3c2=O)cc1,,"inconclusive [inhibitor, full curve]"
CCOc1ccc(CNC(=O)Cn2c(=O)c3cccn3c3ccc(F)cc32)cc1OC,inactive: 2.21%,
Cc1ccc(Cn2c(SCc3ccc(C(=O)N4CCCCCC4)cc3)nc3ccncc32)cc1,inactive: -0.447%,
CCOC(=O)N1CCc2c(sc3c2c(=O)n(Cc2ccccc2)c(=O)n3CC(=O)Nc2cccc(C)c2)C1,,active: 4.25 µM
CCCC(CCC)C(N)=O,inactive: 7.79%,
NCCNc1ccc(NCCN)c2c1C(=O)c1ccncc1C2=O,,"inconclusive [inhibitor, partial curve]"
Cc1[nH]n2c(=O)cc(-c3ccccc3Cl)nc2c1-c1ccccc1,,"inconclusive [inhibitor, single point]"
COC(=O)C1=C(c2ccccc2)c2ccccc2S(=O)(=O)N1CC(=O)Nc1ccccc1Cl,,active: 4.77 µM
Cc1nc2c3ccccc3nc(NNC(=O)CCC(=O)N3CCN(c4ccccc4F)CC3)n2n1,,"inconclusive [inhibitor, partial curve]"
COc1ccc(NC(=O)CSc2oc(-c3cccs3)nc2S(=O)(=O)c2ccc(Br)cc2)c(OC)c1,,active: 0.477 µM
COc1cc(C(c2c(C)[nH][nH]c2=O)c2c(C)[nH][nH]c2=O)ccc1OC(=O)c1ccccc1F,,active: 10.7 µM
COC(=O)c1c(-c2ccc(Cl)cc2)noc1N1CCN(c2ccccc2OC)CC1,inactive: -9.53%,
Cn1c(=O)c2c(nc(CN3CCN(C(=O)C4CC4)CC3)n2Cc2ccccc2Cl)n(C)c1=O,,"inconclusive [inhibitor, full curve, poor fit]"
CN1N=C(N)c2cn([C@@H]3O[C@H](COP(=O)(O)O)[C@@H](O)[C@H]3O)c3ncnc1c23,,"inconclusive [inhibitor, single point]"
COC(=O)c1c(SCC(=O)Nc2cc(C)cc(C)c2)[nH]c2ccccc2c1=O,,active: 21.3 µM
O=C(NCc1ccco1)c1ccc2c(c1)N(Cc1cccc(Cl)c1)C(=O)c1ccccc1S2=O (stereo not given),,active: 1.34 µM
Cc1onc(-c2c(F)cccc2Cl)c1C(=O)Cl,,"inconclusive [inhibitor, partial curve, poor fit]"
COc1ccc(CCNc2nc(SCc3cccc(F)c3)nc3ccccc23)cc1OC,,active: 0.756 µM
